Measurements published in the supplement of paper PMC4166925.
± gives the standard deviation of the averaged measurements. Whole data set: some 33,000 sequences, median “E-score (dimensionless, -0.5 to 0.5)” near -0.049, cut for the highest 2% near 0.37. The list shows a part of the results.

These sequences were tested on T1, PmTbr T-box DNA-binding domain (GST fusion) (assay: PBM E-score of 8-mer (E-score (dimensionless, -0.5 to 0.5)); Tbr is Tbrain of the sea star Patiria miniata (Pm) or the sea urchin Strongylocentrotus purpuratus (Sp); higher = stronger binding preference; most listed sequences are background and not binding sites). Conditions: the construct has about 5 more residues each side.
T1 sequence: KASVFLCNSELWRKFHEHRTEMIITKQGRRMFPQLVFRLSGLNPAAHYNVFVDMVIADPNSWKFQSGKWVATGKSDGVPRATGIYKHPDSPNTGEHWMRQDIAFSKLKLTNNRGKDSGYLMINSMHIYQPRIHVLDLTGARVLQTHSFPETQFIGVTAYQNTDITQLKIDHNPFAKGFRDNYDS
Outline: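 GST-fused Tbr T-box DNA-binding domains (the whole T-box plus about five flanking residues) were expressed in BL21 E. coli at 20 °C and purified by glutathione affinity chromatography. Universal Agilent oligonucleotide arrays were made double-stranded by primer extension, incubated with 200 nM protein in PBS (pH 7.5), then scanned and quantified. Every ungapped 8-mer was scored from probe intensities. The Universal PBM Analysis Suite gave each word an enrichment E-score, averaged over duplicate arrays.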
CCCCTTGA was tested, and the “PBM E-score of 8-mer” value was -0.08 ± 0.0082.
For TAGGTTCA, the “PBM E-score of 8-mer” value was -0.023 ± 0.1.
ATCCACAC was tested, and the “PBM E-score of 8-mer” value was 0.339 ± 0.011.
With TACTTCCA the “PBM E-score of 8-mer” value was -0.16 ± 0.084.
For AAGTGTCG, the “PBM E-score of 8-mer” value was 0.44424 ± 0.0003.
CGTCGGTC was tested, and the “PBM E-score of 8-mer” value was -0.215 ± 0.041.
With ACTAATCG the “PBM E-score of 8-mer” value was -0.0843 ± 0.064.
With CGCGCTAG the “PBM E-score of 8-mer” value was 0.159 ± 0.019.
With GAGCACGA the “PBM E-score of 8-mer” value was -0.0758 ± 0.042.
In the case of GATGATCA, the “PBM E-score of 8-mer” value is reported as 0.0368 ± 0.0032.
With GCCATACA the “PBM E-score of 8-mer” value was 0.0649 ± 0.0091.
In the case of ACTAGGGG, the “PBM E-score of 8-mer” value is reported as 0.00307 ± 0.069.
With TGCCTACA the “PBM E-score of 8-mer” value was -0.0287 ± 0.062.
GTGGTTAA was tested, and the “PBM E-score of 8-mer” value was 0.0848 ± 0.1.
With GCGGGGAC the “PBM E-score of 8-mer” value was -0.227 ± 0.05.
CGTCGTGC was tested, and the “PBM E-score of 8-mer” value was 0.0521 ± 0.018.
With AGGTATAA the “PBM E-score of 8-mer” value was 0.00827 ± 0.059.
With AATGTAAA the “PBM E-score of 8-mer” value was 0.00302 ± 0.019.
With GTTAGCTA the “PBM E-score of 8-mer” value was -0.0565 ± 0.041.
In the case of GCAGACAC, the “PBM E-score of 8-mer” value is reported as 0.168 ± 0.016.
With ATCAAATG the “PBM E-score of 8-mer” value was -0.0836 ± 0.039.
With CCGGAATA the “PBM E-score of 8-mer” value was -0.0611 ± 0.069.
GTTAAGCA was tested, and the “PBM E-score of 8-mer” value was 0.0703 ± 0.02.
With AGAATGCA the “PBM E-score of 8-mer” value was -0.0829 ± 0.0047.
In the case of CGGCATGC, the “PBM E-score of 8-mer” value is reported as -0.0704 ± 0.06.
For ACCTATCA, the “PBM E-score of 8-mer” value was 0.222 ± 0.0038.
For CACGGCGG, the “PBM E-score of 8-mer” value was 0.00086 ± 0.011.
CTATACGA was tested, and the “PBM E-score of 8-mer” value was 0.143 ± 0.018.
In the case of ACCTAGTA, the “PBM E-score of 8-mer” value is reported as -0.0121 ± 0.025.
For AAGATAAG, the “PBM E-score of 8-mer” value was -0.257 ± 0.023.
TTCTGCAA was tested, and the “PBM E-score of 8-mer” value was -0.118 ± 0.03.
With ATATGCTC the “PBM E-score of 8-mer” value was -0.0862 ± 0.0065.
ATACGCAT was tested, and the “PBM E-score of 8-mer” value was -0.114 ± 0.039.
CCTGGTCA was tested, and the “PBM E-score of 8-mer” value was 0.0112 ± 0.094.
For AGATCGTG, the “PBM E-score of 8-mer” value was 0.112 ± 0.016.
In the case of AAGGCCCA, the “PBM E-score of 8-mer” value is reported as -0.0396 ± 0.001.
In the case of CACGCATG, the “PBM E-score of 8-mer” value is reported as 0.133 ± 0.03.
AATCATCT was tested, and the “PBM E-score of 8-mer” value was 0.114 ± 0.024.
In the case of CATACCGA, the “PBM E-score of 8-mer” value is reported as -0.186 ± 0.051.
In the case of CCCCCAGC, the “PBM E-score of 8-mer” value is reported as -0.176 ± 0.0044.
In the case of AACCGAAA, the “PBM E-score of 8-mer” value is reported as -0.197 ± 0.051.
In the case of AAGACTTA, the “PBM E-score of 8-mer” value is reported as -0.124 ± 0.081.
With AGTCTGCC the “PBM E-score of 8-mer” value was -0.227 ± 0.025.
In the case of AGACCTGC, the “PBM E-score of 8-mer” value is reported as 0.0219 ± 0.066.
GGTCCCAA was tested, and the “PBM E-score of 8-mer” value was -0.152 ± 0.03.
For CGACTGGA, the “PBM E-score of 8-mer” value was -0.206 ± 0.035.
With AAGCAGGA the “PBM E-score of 8-mer” value was -0.165 ± 0.022.
CCATATGG was tested, and the “PBM E-score of 8-mer” value was -0.17 ± 0.091.
For TCTGCCAA, the “PBM E-score of 8-mer” value was -0.0526 ± 0.028.
With GGCCTTAA the “PBM E-score of 8-mer” value was -0.123 ± 0.05.
AGACGATA was tested, and the “PBM E-score of 8-mer” value was -0.0177 ± 0.0056.
For AATGCGGA, the “PBM E-score of 8-mer” value was -0.0613 ± 0.037.
With GGGCTGTA the “PBM E-score of 8-mer” value was -0.178 ± 0.004.
For TACCGGTA, the “PBM E-score of 8-mer” value was -0.0985 ± 0.1.
With ATGTGACC the “PBM E-score of 8-mer” value was 0.112 ± 0.052.
ATGAGAGA was tested, and the “PBM E-score of 8-mer” value was -0.176 ± 0.079.
In the case of CTGAGTCA, the “PBM E-score of 8-mer” value is reported as -0.182 ± 0.06.
AACCAAGT was tested, and the “PBM E-score of 8-mer” value was 0.0656 ± 0.012.
For ATACGGCA, the “PBM E-score of 8-mer” value was -0.129 ± 0.014.
In the case of ACGTGTAT, the “PBM E-score of 8-mer” value is reported as -0.0681 ± 0.11.
With AACACTAG the “PBM E-score of 8-mer” value was 0.275 ± 0.056.
CCGCGCTA was tested, and the “PBM E-score of 8-mer” value was 0.111 ± 0.046.
With CTAGATAA the “PBM E-score of 8-mer” value was -0.0467 ± 0.005.
In the case of ATCCTCTG, the “PBM E-score of 8-mer” value is reported as -0.0609 ± 0.083.
AATTGCAT was tested, and the “PBM E-score of 8-mer” value was -0.189 ± 0.074.
For GCGATACA, the “PBM E-score of 8-mer” value was 0.0052 ± 0.0075.
ATGGCCCC was tested, and the “PBM E-score of 8-mer” value was -0.0631 ± 0.0096.
In the case of CGAAGTAA, the “PBM E-score of 8-mer” value is reported as -0.056 ± 0.0046.
In the case of ACATCTGA, the “PBM E-score of 8-mer” value is reported as 0.141 ± 0.023.
In the case of ATATCAAT, the “PBM E-score of 8-mer” value is reported as 0.0417 ± 0.036.
CAGAATTA was tested, and the “PBM E-score of 8-mer” value was -0.104 ± 0.044.
With CAGTGGCA the “PBM E-score of 8-mer” value was 0.174 ± 0.041.
For AGGGATGA, the “PBM E-score of 8-mer” value was -0.219 ± 0.012.
In the case of CAGCAAGG, the “PBM E-score of 8-mer” value is reported as 0.0737 ± 0.052.
For GAGGAAGA, the “PBM E-score of 8-mer” value was -0.0968 ± 0.011.
In the case of ACAAATGT, the “PBM E-score of 8-mer” value is reported as 0.105 ± 0.14.
With GTTCCATA the “PBM E-score of 8-mer” value was -0.305 ± 0.031.
In the case of AGCTGCAT, the “PBM E-score of 8-mer” value is reported as -0.166 ± 0.006.
With CACCTACG the “PBM E-score of 8-mer” value was 0.412 ± 0.0089.
For ATACTAGA, the “PBM E-score of 8-mer” value was -0.116 ± 0.005.
With TTCCAAAA the “PBM E-score of 8-mer” value was -0.261 ± 0.068.
In the case of CGCGGGTA, the “PBM E-score of 8-mer” value is reported as 0.105 ± 0.034.
AACGACTG was tested, and the “PBM E-score of 8-mer” value was 0.117 ± 0.053.
AAATTTCC was tested, and the “PBM E-score of 8-mer” value was -0.163 ± 0.01.
In the case of AGTAGGAT, the “PBM E-score of 8-mer” value is reported as -0.0279 ± 0.011.
For ATGAGTTA, the “PBM E-score of 8-mer” value was -0.173 ± 0.087.
In the case of GACTTCTC, the “PBM E-score of 8-mer” value is reported as 0.148 ± 0.065.
CATTGTCA was tested, and the “PBM E-score of 8-mer” value was 0.301 ± 0.014.
For CGAAAGCA, the “PBM E-score of 8-mer” value was -0.135 ± 0.054.
In the case of AGGTAGAC, the “PBM E-score of 8-mer” value is reported as -0.137 ± 0.023.
In the case of ATAGGGTC, the “PBM E-score of 8-mer” value is reported as -0.279 ± 0.034.
With CAACGTGG the “PBM E-score of 8-mer” value was -0.0277 ± 0.11.
CCAACCCC was tested, and the “PBM E-score of 8-mer” value was -0.101 ± 0.018.
With ACCATTAC the “PBM E-score of 8-mer” value was 0.0428 ± 0.035.
With TGCACCCA the “PBM E-score of 8-mer” value was -0.00473 ± 0.017.
TATATCGA was tested, and the “PBM E-score of 8-mer” value was -0.0386 ± 0.027.
For GAGCGGAC, the “PBM E-score of 8-mer” value was -0.305 ± 0.019.
In the case of ATTCACTA, the “PBM E-score of 8-mer” value is reported as 0.124 ± 0.028.
GTGTACCA was tested, and the “PBM E-score of 8-mer” value was -0.0731 ± 0.0088.
With CCAGGACC the “PBM E-score of 8-mer” value was -0.142 ± 0.037.
For CTCGCGTA, the “PBM E-score of 8-mer” value was 0.15 ± 0.05.
In the case of GATGTGGC, the “PBM E-score of 8-mer” value is reported as 0.117 ± 0.0081.
For GCGTCCCA, the “PBM E-score of 8-mer” value was 0.0282 ± 0.0034.
AAAGCCCT was tested, and the “PBM E-score of 8-mer” value was -0.193 ± 0.0078.
For TAGTATAA, the “PBM E-score of 8-mer” value was 0.0737 ± 0.035.
CGTAAGAC was tested, and the “PBM E-score of 8-mer” value was -0.27 ± 0.014.
With ATCTGGGG the “PBM E-score of 8-mer” value was -0.107 ± 0.061.
With TGAAACAA the “PBM E-score of 8-mer” value was 0.122 ± 0.049.
With TACGCAGA the “PBM E-score of 8-mer” value was -0.095 ± 0.084.
For AACCTCCG, the “PBM E-score of 8-mer” value was 0.0421 ± 0.042.
